Measured values taken from the supplement of paper PMC8728848.
The other results are listed elsewhere or left out.

Tests used:
Test in all cases: glycan array binding signal (z-score within array); higher = stronger binding
Details in all cases: glycan notation: IUPAC condensed, linker removed
[1] = target: Fuc(a1-2)Gal
Method in brief: (§1)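 Negative Z-scores can be read as non-binding. The Z-score is calculated within each array and then averaged across arrays of one protein sequence at different concentrations or buffers and across linkers. Arrays, 3228 in all, were curated from the Consortium for Functional Glycomics database and kept only where the protein sequence was available.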

[2] = target: Fuc(a1-2)Gal(b1-3)GalNAc
Method in brief: as §1

[3] = target: Fuc(a1-2)Gal(b1-3)GalNAc(a1-3)[Fuc(a1-2)]Gal(b1-4)Glc
Method in brief: as §1

[4] = target: Fuc(a1-2)Gal(b1-3)GalNAc(a1-3)[Fuc(a1-2)]Gal(b1-4)GlcNAc
Method in brief: as §1

[5] = target: Fuc(a1-2)Gal(b1-3)GalNAc(b1-3)Gal
Method in brief: as §1

[6] = target: Fuc(a1-2)Gal(b1-3)GalNAc(b1-3)Gal(a1-4)Gal(b1-4)Glc
Method in brief: as §1

[7] = target: Fuc(a1-2)Gal(b1-3)GalNAc(b1-4)[Neu5Ac(a2-3)]Gal(b1-4)Glc
Method in brief: as §1

[8] = target: Fuc(a1-2)Gal(b1-3)GlcNAc
Method in brief: as §1

[9] = target: Fuc(a1-2)Gal(b1-3)GlcNAc(b1-2)Man(a1-3)[Fuc(a1-2)Gal(b1-3)GlcNAc(b1-2)Man(a1-6)]Man(b1-4)GlcNAc(b1-4)GlcNAc
Method in brief: as §1

[10] = target: Fuc(a1-2)Gal(b1-3)GlcNAc(b1-2)Man(a1-3)[Fuc(a1-2)Gal(b1-3)GlcNAc(b1-2)Man(a1-6)]Man(b1-4)GlcNAc(b1-4)[Fuc(a1-6)]GlcNAc
Method in brief: as §1

[11] = target: Fuc(a1-2)Gal(b1-3)GlcNAc(b1-3)Gal(b1-4)Glc
Method in brief: as §1

[12] = target: Fuc(a1-2)Gal(b1-3)GlcNAc(b1-3)GalNAc
Method in brief: as §1

[13] = target: Fuc(a1-2)Gal(b1-3)GlcNAc(b1-3)[Fuc(a1-3)[Gal(b1-4)]GlcNAc(b1-6)]Gal(b1-4)Glc
Method in brief: as §1

[14] = target: Fuc(a1-2)Gal(b1-3)GlcNAc(b1-3)[Gal(b1-4)GlcNAc(b1-6)]Gal(b1-4)Glc
Method in brief: as §1

[15] = target: Fuc(a1-2)Gal(b1-3)GlcNAc(b1-3)[Gal(b1-4)[Fuc(a1-3)]GlcNAc(b1-6)]Gal(b1-4)Glc
Method in brief: as §1

[16] = target: Fuc(a1-2)Gal(b1-3)GlcNAc(b1-3)[Neu5Ac(a2-6)Gal(b1-4)GlcNAc(b1-6)]Gal(b1-4)Glc
Method in brief: as §1

[17] = target: Fuc(a1-2)Gal(b1-3)[Fuc(a1-4)]GlcNAc
Method in brief: as §1

[18] = target: Fuc(a1-2)Gal(b1-3)[Fuc(a1-4)]GlcNAc(b1-2)Man(a1-3)[Fuc(a1-2)Gal(b1-3)[Fuc(a1-4)]GlcNAc(b1-2)Man(a1-6)]Man(b1-4)GlcNAc(b1-4)GlcNAc
Method in brief: as §1

[19] = target: Fuc(a1-2)Gal(b1-3)[Fuc(a1-4)]GlcNAc(b1-3)[Fuc(a1-3)[Gal(b1-4)]GlcNAc(b1-6)]Gal(b1-4)Glc
Method in brief: as §1

[20] = target: Fuc(a1-2)Gal(b1-3)[Fuc(a1-4)]GlcNAc(b1-3)[Gal(b1-4)GlcNAc(b1-6)]Gal(b1-4)Glc
Method in brief: as §1

[21] = target: Fuc(a1-2)Gal(b1-4)Glc
Method in brief: as §1

[22] = target: Fuc(a1-2)Gal(b1-4)Glc6S
Method in brief: as §1

[23] = target: Fuc(a1-2)Gal(b1-4)GlcNAc
Method in brief: as §1

[24] = target: Fuc(a1-2)Gal(b1-4)GlcNAc(b1-2)Man(a1-3)[Fuc(a1-2)Gal(b1-4)GlcNAc(b1-2)Man(a1-6)]Man(b1-4)GlcNAc(b1-4)GlcNAc
Method in brief: as §1

[25] = target: Fuc(a1-2)Gal(b1-4)GlcNAc(b1-2)Man(a1-3)[Fuc(a1-2)Gal(b1-4)GlcNAc(b1-2)Man(a1-6)]Man(b1-4)GlcNAc(b1-4)[Fuc(a1-6)]GlcNAc
Method in brief: as §1

[26] = target: Fuc(a1-2)Gal(b1-4)GlcNAc(b1-2)[Fuc(a1-2)Gal(b1-4)GlcNAc(b1-4)]Man(a1-3)[Fuc(a1-2)Gal(b1-4)GlcNAc(b1-2)Man(a1-6)]Man(b1-4)GlcNAc(b1-4)GlcNAc
Method in brief: as §1

[27] = target: Fuc(a1-2)Gal(b1-4)GlcNAc(b1-3)Gal(b1-4)GlcNAc
Method in brief: as §1

[28] = target: Fuc(a1-2)Gal(b1-4)GlcNAc(b1-3)Gal(b1-4)GlcNAc(b1-3)Gal(b1-4)GlcNAc
Method in brief: as §1

[29] = target: Fuc(a1-2)Gal(b1-4)GlcNAc(b1-3)GalNAc
Method in brief: as §1

[30] = target: Fuc(a1-2)Gal(b1-4)GlcNAc(b1-3)[Fuc(a1-2)Gal(b1-4)GlcNAc(b1-6)]GalNAc
Method in brief: as §1

B1: BC2L-D C-terminal domain (Burkholderia cenocepacia), Q39MQ9_BURS3 (protein)
chain: LVIVDAVTLLSAYPEASRDPAAPTVIDGRHLYVVSPGDAAQLGHNDSRLFTGLSPGDQLHLRETALALRAEVSVLFIRFALKDAGIVAPIELEVRDAATAVPDADDLLHPSCRPLKDHYWRSDVLAAGATTCTADFAVCDRDGTVSGYFRWETSIEIAGSQPDTKQPGFKPSSDRNGNFSLPPNTAFKAIFYANAADRQDLKLFIDDAPEPAATFVGNSEDGVRLFTLNSKGGKIRIEASANGRQSATDARLAPLSAGDTVWLGWLGAEDGADADYNDGIVILQWPIT
glycan array binding signal (z-score) [1]: -0.116
glycan array binding signal (z-score) [2]: 0.513
glycan array binding signal (z-score) [3]: -0.158
glycan array binding signal (z-score) [4]: -0.159
glycan array binding signal (z-score) [5]: -0.226
glycan array binding signal (z-score) [6]: 1.08
glycan array binding signal (z-score) [7]: 0.376
glycan array binding signal (z-score) [8]: 0.536
glycan array binding signal (z-score) [9]: 1.29
glycan array binding signal (z-score) [10]: 0.094
glycan array binding signal (z-score) [11]: 0.385
glycan array binding signal (z-score) [12]: -0.16
glycan array binding signal (z-score) [13]: -0.169
glycan array binding signal (z-score) [14]: -0.162
glycan array binding signal (z-score) [15]: 0.863
glycan array binding signal (z-score) [16]: -0.159
glycan array binding signal (z-score) [17]: 0.632
glycan array binding signal (z-score) [18]: 0.416
glycan array binding signal (z-score) [19]: -0.154
glycan array binding signal (z-score) [20]: -0.159
glycan array binding signal (z-score) [21]: -0.042
glycan array binding signal (z-score) [22]: -0.155
glycan array binding signal (z-score) [23]: 0.317
glycan array binding signal (z-score) [24]: 0.369
glycan array binding signal (z-score) [25]: -0.005
glycan array binding signal (z-score) [26]: -0.137
glycan array binding signal (z-score) [27]: 0.174
glycan array binding signal (z-score) [28]: 0.093
glycan array binding signal (z-score) [29]: -0.165
glycan array binding signal (z-score) [30]: -0.165
